Experimental data: the supplement of paper PMC3334620
In all, about 33,000 sequences were measured (“E-score (-0.5 to 0.5)”: median about -0.056, highest 2% from about 0.38 on). The list shows a part of the results.

These sequences were tested against Stb4 (UniProt P50104) (assay: PBM E-score (8-mer binding enrichment) (E-score (-0.5 to 0.5)); higher = stronger / more preferred TF binding; most listed sequences are background and not binding sites). Details: protein concentration: 200 nM; construct: GST-DNA-binding domain.
In short: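 Yeast transcription factors, full-length or as DNA-binding domains, were expressed with a GST tag using PURExpress in vitro transcription/translation. At about 100-200 nM they were applied to universal all-10-mer Agilent arrays, double-stranded by primer extension on fresh or once-stripped slides. Fluorescent anti-GST detected bound protein, and masliner normalised the scans. E-scores for ungapped eight-base words, pooled with reverse complements, came from the Universal PBM Analysis Suite.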

Sequence	PBM E-score
TGTGGGAA	-0.216
CTCAGACA	-0.257
AATCATTG	-0.336
ACGCCGTC	0.00534
ACTAATGC	0.0781
AAGAACTG	-0.0907
TCATATAA	-0.151
ATCGAATA	-0.143
AGCTGCCT	-0.183
CCACCAGA	-0.132
TAAATTCA	-0.225
GTACATCA	-0.00531
CTCTAGAA	-0.208
GGGAGAGA	-0.105
AGCTTTAG	-0.246
CCTTGGGC	-0.177
GAATTGGC	-0.0889
ATAAACAT	-0.0328
GTATGCAA	-0.0553
AACCGGTA	0.146
ACCGTGTA	-0.0765
TAAGCTGA	0.0804
CAATCCAC	-0.0708
CTGAAGAA	-0.226

Sequence	PBM E-score
CTCACCAC	-0.102
TAACCTAA	-0.105
ATATGAGA	-0.0361
CCCATTAG	-0.321
ACTAATTG	-0.0257
GAGAGTGC	-0.236
ACGTCGAG	-0.227
GAACGTGC	-0.109
CGTGCAAA	-0.154
CCAGATCC	0.0602
GGCAAACA	0.0353
ACGGTCCG	0.241
GGGCACAA	-0.115
GTCGAAGA	-0.178
CGACGTAC	0.0486
CGTAGACG	-0.0949
GCGTGTAA	-0.243
CGCCCTAC	-0.236
AACAACTC	-0.134
CTCAAGAC	-0.0435
ACCTATAG	-0.331
AGGCCATG	-0.12
GCAAAAAC	-0.0252
CCTCATAC	-0.0239

Sequence	PBM E-score
TCAGTAAA	-0.0926
CTCACCCC	0.0242
CGCCGCGA	0.0875
GTTAACTA	0.0345
CGTCCCAA	-0.155
CATCTCCC	0.205
AACCGACT	0.215
CGACTGCA	-0.0596
AACAAACC	0.161
AGTGACTA	-0.106
ACAGATGC	-0.0741
CCGTCTAA	0.134
CTGTAAGA	-0.175
ATGAAAAT	0.0835
TAAGAGGA	-0.101
ATGGCCAC	-0.251
CAGTTCAG	-0.284
AAAATTAC	0.0435
AAGGCGAG	-0.204
GTTGAAAA	0.107
CCGATCAA	0.24
GGATGAAC	0.216
GTCGGCCA	-0.0483
CCCTAAAA	-0.234

Sequence	PBM E-score
ACCAAGCG	-0.111
AACGGACT	0.0278
ACGGCACA	0.145
GTTTATTA	0.126
GTCCTCCA	-0.138
ACATCCAA	-0.0853
GGGCGGAA	0.308
CCTAGGAG	-0.0756
TAATAGTA	0.0223
ATCGGAAG	0.433
AAAAGATT	-0.0765
CAGAGCTA	-0.215
CGCACAAG	-4e-05
CACATTTC	0.00324
GGTGCCTA	-0.0355
CAATACAA	-0.00033
CATAACTA	-0.159
GAGGAGAA	-0.115
CAGGGAGC	-0.277
CTCAGTGC	-0.109
CGGGTACG	0.333
CTTAGCCA	-0.21
